Residue numbers refer to the chain shown, from its start. Several values for one entry are separate records, joined by “and”; a condition that tells them apart may be missing. Equal values may be shown once.

Series [1] deals with Molt-4 human acute lymphoblastic leukemia cell line. Kind of series: Growth inhibition assay, ATPlite 1 step, 72 hours. It is filed as cell-based. To be noted: Molt-4 cells; for % Cell Viability at 50 nM: 50 nM ADC; for IC50: ATPlite 1 step, read-out: Molt4 IC50. As for the experimental part: The activities of these ADCs were tested in growth inhibition assays in the Molt-4 human acute lymphoblastic leukemia cell line. Briefly, 5000 Molt-4 cells per well in 96-well plates were treated with ADCs in serial dilution for 72 hours. The number of viable cells was determined by the ATPlite 1 step reagent (PerkinElmer 6016739) as instructed by the manufacturer. Data was analyzed using Graphpad Prism software and IC50 values were reported as the concentration of ADC to achieve 50% inhibition of cell proliferation (Table 27).
(In general: ATP-based viability assays read luminescence as a measure of living cells.)

The test system of series [2] is A549-FP3 human lung carcinoma xenograft. Put plainly: A549 FP3 xenograft tumor growth inhibition in SCID-bg mice, with or without docetaxel. It is filed as in vivo, mouse. The note with it: QD × 1, Ab095 8 mg/kg IP, docetaxel 7.5 mg/kg IV, ADC 10 mg/kg IP, combination 7.5 + 10. The procedure: (§1) The cell lines A549 and NCI-H460 were obtained from the American Type Culture Collection (ATCC, Manassas, Va.). A549 cell line was further passaged in mice as flank xenograft to improve xenograft tumor growth, resulting in the A549-FP3 line. Cells were cultured as monolayers in RPMI-1640 culture media (Invitrogen, Carlsbad, Calif.) supplemented with 10% Fetal Bovine Serum (FBS, Hyclone, Logan, Utah). To generate xenografts, 5×10^6 (A549 and NCI-H460) viable cells were inoculated subcutaneously into the right flank of immune deficient female SCID-bg mice (Charles River Laboratories, Wilmington, Mass.). The injection volume was 0.2 ml and composed of 1:1 S-MEM:Matrigel Matrigel (BD, Franklin Lakes, N.J.). Tumors were size matched at approximately 223 mm^3. Antibodies, conjugates, and docetaxel were formulated in 0.9% sodium chloride for injection. […] Therapy began within 24 hours after size matching of the tumors. Mice weighed approximately 21 g at the onset of therapy. Tumor volume was estimated two to three times weekly. Measurements of the length (L) and width (W) of the tumor were taken via electronic caliper and the volume was calculated according to the following equation: V=L×W^2/2. […] Eight mice were housed per cage. […] Tumor growth inhibition is calculated by 100*(1−Tv/Cv) where Tv and Cv are the mean tumor volumes of the treated and control groups, respectively.

The subject of series [3] is NCI-H460 human lung carcinoma xenograft. Put plainly: NCI-H460 xenograft tumor growth inhibition in SCID-bg mice, with or without docetaxel. In kind it is in vivo, mouse. The note with it: QD × 1, Ab095 8 mg/kg IP, docetaxel 7.5 mg/kg IV, ADC 10 mg/kg IP, combination 7.5 + 10. The procedure: as §1
Series [4] has as its system NCI-H146 (human small cell lung cancer) xenograft. Put plainly: NCI-H146 xenograft tumor growth inhibition in SCID-bg mice. In kind it is in vivo, mouse. To be noted: single dose 10 mg/kg/day, QD × 1/IP.

B1: CD98 (CL-huAb110)-YG (conjugate)
heavy: EVQLVQSGAEVKKPGASVKVSCKASGFTFSDYTMAWVRQAPGQGLEWVATIIYDARGTYYRDAVKGRFTITRDNSTSTLYLELSSLRSEDTAVYYCARQSDDTYYYWGYFDYWGQGTMVTVSSASTKGPSVFPLAPSSKSTSGGTAALGCLVKDYFPEPVTVSWNSGALTSGVHTFPAVLQSSGLYSLSSVVTVPSSSLGTQTYICNVNHKPSNTKVDKKV[skipping human IgG1 Fc with changes]
light: DIVMTQTPLSLPVTPGEPASINCKSSQSLLFSGNQKNYLAWYLQKPGQSPQLLIYWASTRQSGVPDRFSGSGSGTDFTLKISRVEAEDVGIYYCQQYYSSPYTFGQGTKLEIKRTVAAPSVFIFPPSDEQLKSGTASVVCLLNNFYPREAKVQWKVDNALQSGNSQESVTEQDSKDSTYSLSSTLTLSKADYEKHKVYACEVTHQGLSSPVTKSFNRGEC
B1: in series [1], the “% Cell Viability at 50 nM” value is 10.0% and the IC50 (usually the midpoint of a concentration-inhibition curve) is 0.493 nM.

B2: CD98 (CL-huAb108)-TX (conjugate)
heavy: EVQLVQSGAEVKKPGASVKVSCKASGFTFSDYTMAWVRQAPGQGLEWVATIIYSGRGTYYRDAVKGRFTITRDNSTSTLYLELSSLRSEDTAVYYCARQSDDTYYYWGYFDYWGQGTMVTVSSASTKGPSVFPLAPSSKSTSGGTAALGCLVKDYFPEPVTVSWNSGALTSGVHTFPAVLQSSGLYSLSSVVTVPSSSLGTQTYICNVNHKPSNTKVDKKV[skipping human IgG1 Fc with changes]
light: B1 light with S99D, S100V
For B2, in series [2], the “TGD (%)” value is 60% and the “TGImax (%)” value worked out at 57%. In series [3], the “TGD (%)” value worked out at 22% and the “TGImax (%)” value came out at 35%.

B3: CD98 (CL-huAb102)-CZ (conjugate)
heavy: EVQLVESGGGLVQPGGSLRLSCATSGFTFIDYYMSWVRQAPGKGLEWLGFIRNKANRYTTEYSASVKGRFTISRDNSKSILYLQMNSLKTEDTAVYYCTRDRPAWFVYWGQGTLVTVSSASTKGPSVFPLAPSSKSTSGGTAALGCLVKDYFPEPVTVSWNSGALTSGVHTFPAVLQSSGLYSLSSVVTVPSSSLGTQTYICNVNHKPSNTKVDKKV[skipping human IgG1 Fc with changes]
light: B1 light with N22S, F31Y, G33S, Q61E, I91V, S100Y, Q106G, L110V
Take B3: in series [1], the “% Cell Viability at 50 nM” value worked out at 1.0% and the IC50 was found to be 0.015 nM. In series [4], the “TGImax (%)” value was 93%.

B4: CD98 (CL-huAb110)-CZ (conjugate)
heavy: EVQLVQSGAEVKKPGASVKVSCKASGFTFSDYTMAWVRQAPGQGLEWVATIIYDARGTYYRDAVKGRFTITRDNSTSTLYLELSSLRSEDTAVYYCARQSDDTYYYWGYFDYWGQGTMVTVSSASTKGPSVFPLAPSSKSTSGGTAALGCLVKDYFPEPVTVSWNSGALTSGVHTFPAVLQSSGLYSLSSVVTVPSSSLGTQTYICNVNHKPSNTKVDKKV[skipping human IgG1 Fc with changes]
light: B1 light
For B4, in series [4], the “TGImax (%)” value was 92%.

B5: CD98 (CL-huAb104)-AAA (conjugate)
heavy: EVQLVESGGGLVQPGGSLRLSCATSGFTFIDYYMSWVRQAPGKGLEWLGFIRNKAYGYTTEYSASVKGRFTISRDNSKSILYLQMNSLKTEDTAVYYCTRDRPAWFVYWGQGTLVTVSSASTKGPSVFPLAPSSKSTSGGTAALGCLVKDYFPEPVTVSWNSGALTSGVHTFPAVLQSSGLYSLSSVVTVPSSSLGTQTYICNVNHKPSNTKVDKKV[skipping human IgG1 Fc with changes]
light: B1 light with N22S, F31Y, G33S, Q61E, I91V, S100Y, Q106G, L110V
With B5, in series [4], the “TGImax (%)” value is listed as 61%.

B6: CD98 (CL-huAb104)-CZ (conjugate)
heavy: EVQLVESGGGLVQPGGSLRLSCATSGFTFIDYYMSWVRQAPGKGLEWLGFIRNKAYGYTTEYSASVKGRFTISRDNSKSILYLQMNSLKTEDTAVYYCTRDRPAWFVYWGQGTLVTVSSASTKGPSVFPLAPSSKSTSGGTAALGCLVKDYFPEPVTVSWNSGALTSGVHTFPAVLQSSGLYSLSSVVTVPSSSLGTQTYICNVNHKPSNTKVDKKV[skipping human IgG1 Fc with changes]
light: B1 light with N22S, F31Y, G33S, Q61E, I91V, S100Y, Q106G, L110V
On to B6, for which the “TGImax (%)” value in series [4] was found to be 90%.

B7: CD98 (CL-huAb102)-AAA (conjugate)
heavy: EVQLVESGGGLVQPGGSLRLSCATSGFTFIDYYMSWVRQAPGKGLEWLGFIRNKANRYTTEYSASVKGRFTISRDNSKSILYLQMNSLKTEDTAVYYCTRDRPAWFVYWGQGTLVTVSSASTKGPSVFPLAPSSKSTSGGTAALGCLVKDYFPEPVTVSWNSGALTSGVHTFPAVLQSSGLYSLSSVVTVPSSSLGTQTYICNVNHKPSNTKVDKKV[skipping human IgG1 Fc with changes]
light: B1 light with N22S, F31Y, G33S, Q61E, I91V, S100Y, Q106G, L110V
In the case of B7, the “TGImax (%)” value in series [4] is reported as 69%.

B8: CD98 (CL-huAb108)-AAA (conjugate)
heavy: EVQLVQSGAEVKKPGASVKVSCKASGFTFSDYTMAWVRQAPGQGLEWVATIIYSGRGTYYRDAVKGRFTITRDNSTSTLYLELSSLRSEDTAVYYCARQSDDTYYYWGYFDYWGQGTMVTVSSASTKGPSVFPLAPSSKSTSGGTAALGCLVKDYFPEPVTVSWNSGALTSGVHTFPAVLQSSGLYSLSSVVTVPSSSLGTQTYICNVNHKPSNTKVDKKV[skipping human IgG1 Fc with changes]
light: B1 light with S99D, S100V
On to B8, for which the “TGImax (%)” value in series [4] is on record as 61%.

B9: CD98 (CL-huAb108)-CZ (conjugate)
heavy: EVQLVQSGAEVKKPGASVKVSCKASGFTFSDYTMAWVRQAPGQGLEWVATIIYSGRGTYYRDAVKGRFTITRDNSTSTLYLELSSLRSEDTAVYYCARQSDDTYYYWGYFDYWGQGTMVTVSSASTKGPSVFPLAPSSKSTSGGTAALGCLVKDYFPEPVTVSWNSGALTSGVHTFPAVLQSSGLYSLSSVVTVPSSSLGTQTYICNVNHKPSNTKVDKKV[skipping human IgG1 Fc with changes]
light: B1 light with S99D, S100V
Consider B9, for which the “TGImax (%)” value in series [4] turned out to be 93%.

B10: CD98 (CL-huAb104)-KZ (conjugate)
heavy: EVQLVESGGGLVQPGGSLRLSCATSGFTFIDYYMSWVRQAPGKGLEWLGFIRNKAYGYTTEYSASVKGRFTISRDNSKSILYLQMNSLKTEDTAVYYCTRDRPAWFVYWGQGTLVTVSSASTKGPSVFPLAPSSKSTSGGTAALGCLVKDYFPEPVTVSWNSGALTSGVHTFPAVLQSSGLYSLSSVVTVPSSSLGTQTYICNVNHKPSNTKVDKKV[skipping human IgG1 Fc with changes]
light: B1 light with N22S, F31Y, G33S, Q61E, I91V, S100Y, Q106G, L110V
With B10, in series [1], the “% Cell Viability at 50 nM” value was 21.2% and the IC50 came to 0.089 nM.

B11: CD98 (CL-huAb102)-TX (conjugate)
heavy: EVQLVESGGGLVQPGGSLRLSCATSGFTFIDYYMSWVRQAPGKGLEWLGFIRNKANRYTTEYSASVKGRFTISRDNSKSILYLQMNSLKTEDTAVYYCTRDRPAWFVYWGQGTLVTVSSASTKGPSVFPLAPSSKSTSGGTAALGCLVKDYFPEPVTVSWNSGALTSGVHTFPAVLQSSGLYSLSSVVTVPSSSLGTQTYICNVNHKPSNTKVDKKV[skipping human IgG1 Fc with changes]
light: B1 light with N22S, F31Y, G33S, Q61E, I91V, S100Y, Q106G, L110V
Turning to B11, the “TGImax (%)” value in series [4] is recorded as 92%.

B12: CD98 (CL-huAb102)-KZ (conjugate)
heavy: EVQLVESGGGLVQPGGSLRLSCATSGFTFIDYYMSWVRQAPGKGLEWLGFIRNKANRYTTEYSASVKGRFTISRDNSKSILYLQMNSLKTEDTAVYYCTRDRPAWFVYWGQGTLVTVSSASTKGPSVFPLAPSSKSTSGGTAALGCLVKDYFPEPVTVSWNSGALTSGVHTFPAVLQSSGLYSLSSVVTVPSSSLGTQTYICNVNHKPSNTKVDKKV[skipping human IgG1 Fc with changes]
light: B1 light with N22S, F31Y, G33S, Q61E, I91V, S100Y, Q106G, L110V
For the molecule B12, the “% Cell Viability at 50 nM” value in series [1] was 20.7% and 16.2%.

Source of the values: patent publication US20200002432A1, “ANTI-CD98 ANTIBODIES AND ANTIBODY DRUG CONJUGATES” (AbbVie Inc., priority 2016, published 2020).
